Measured values as given in PubChem BioAssay AID360 (National Center for Advancing Translational Sciences (NCATS), 2006).
Screen size: about 48,000 compounds; about 550 (1.1%) were called active. Not shown: some 4% with an inconclusive outcome. No stated cut-off is given here; in the data, active means potency below about 15 µM; inconclusive means mostly about 16 µM to 33 µM; inactive means weaker than that. The list shows a part of the results.

biological target: Lysosomal acid glucosylceramidase (Homo sapiens) (UniProt P04062); assay: Glucocerebrosidase; details: purified enzyme, resorufin glucoside fluorescence (screen aimed at inhibitors), 20 min; series mostly up to 77 µM;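 further: the screen sought inhibitors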
UniProt P04062, sequence (P04062 whole entry, looked up): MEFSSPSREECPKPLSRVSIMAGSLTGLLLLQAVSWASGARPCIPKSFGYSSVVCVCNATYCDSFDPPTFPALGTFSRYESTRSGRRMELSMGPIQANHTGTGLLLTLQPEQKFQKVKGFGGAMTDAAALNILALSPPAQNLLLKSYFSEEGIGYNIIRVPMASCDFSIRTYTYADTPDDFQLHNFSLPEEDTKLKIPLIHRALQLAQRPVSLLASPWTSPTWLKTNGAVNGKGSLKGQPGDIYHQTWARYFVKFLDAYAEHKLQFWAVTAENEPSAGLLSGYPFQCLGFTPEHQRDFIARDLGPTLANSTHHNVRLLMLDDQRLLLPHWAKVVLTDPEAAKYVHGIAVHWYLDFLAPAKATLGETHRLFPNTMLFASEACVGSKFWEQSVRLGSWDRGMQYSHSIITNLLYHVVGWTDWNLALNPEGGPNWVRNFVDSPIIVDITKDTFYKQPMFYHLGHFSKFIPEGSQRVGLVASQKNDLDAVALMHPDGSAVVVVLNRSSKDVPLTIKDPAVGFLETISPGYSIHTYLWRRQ
In short: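 Compounds titrated against 0.2 nM normal enzyme, 30 uM resorufin beta-D-glucopyranoside substrate, citrate/phosphate buffer with taurocholate and tween-20, pH 5.9. Reaction ran 20 min at room temperature; fluorescence (Ex 548/Em 600) gave AC50.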
Potency means the concentration at half of the fitted maximal effect.

Potency, inactive:
O=C(OCC(=O)N1CCN(C(=O)c2ccco2)CC1)c1cc(=O)c2ccccc2o1 > 76.9 µM, CCC(Sc1ncccc1C(=O)O)C(=O)N1CCOCC1 (configuration not stated) > 76.9 µM, O=C(Cc1cccs1)NCc1ccncc1 > 76.9 µM, CCOc1ccc2nc(NC(=O)c3cnccn3)sc2c1 > 76.9 µM, CCOC(=O)c1c(C)[nH]c(C(=O)OC/C(O)=C(\C#N)c2nc3ccccc3[nH]2)c1C > 76.9 µM, COc1ccc(C(CC(=O)O)NC(=O)c2ccco2)cc1OC (configuration not stated) > 76.9 µM, CCN1C(=O)N(CN2CCOCC2)C2C1N(CN1CCOCC1)C(=O)N2CC (configuration not stated) > 76.9 µM, CCOc1ccc(C(=O)c2cccs2)cc1 > 76.9 µM, O=C(CCCn1c(=O)c2sccc2n(Cc2ccc(F)cc2)c1=O)NCc1ccco1 > 76.9 µM, COc1ccccc1C1CC(c2ccccc2)Nc2ncnn21 (configuration not stated) > 76.9 µM, Cc1ccc(S(=O)(=O)c2cc3c(=O)n4ccccc4nc3n(Cc3ccco3)c2=N)cc1 > 76.9 µM, COCC(=O)Nc1nc2ccc(C)cc2s1 > 76.9 µM, COc1ccccc1CNC(=O)COc1ccccc1OC > 76.9 µM, CCCCCc1c(C)nc(N2CCc3ccccc32)[nH]c1=O > 76.9 µM, CCCS(=O)(=O)N1CCCC(C(=O)NC2CCCCC2)C1 (configuration not stated) > 76.9 µM, COc1ccccc1-c1nn2c(C(F)(F)F)nnc2s1 > 76.9 µM, CCCCOc1c(Cl)cc(CNC(C)(C)CO)cc1OCC > 76.9 µM, c1csc(-c2cnc3n2CCCC3)c1 > 76.9 µM, CCOC(=O)Nc1ccc2c(c1)ncn2C1CCCCC1 > 76.9 µM, COC(=O)Cn1c(=O)cnc2ccccc21 > 76.9 µM, CCc1ccc(NC(=O)CSc2nc3ccccc3c(=O)n2CCN2CCOCC2)cc1 > 76.9 µM, COc1ccccc1Cn1c(CCCO)nc2ccccc21 > 76.9 µM, O=C(Nc1ccc2c(c1)OCO2)c1cccc(F)c1 > 76.9 µM, O=S(=O)(c1ccccc1)N1CCN(c2nnnn2-c2ccccc2)CC1 > 76.9 µM, O=C1CCCN1C(=O)CCC(=O)N1CCCC1=O > 76.9 µM, CCOCCCNC(=O)C(NC(=O)c1cnccn1)c1ccc(OC)cc1 (configuration not stated) > 76.9 µM, Cc1nnc(NC(=O)C2CCCO2)s1 (configuration not stated) > 76.9 µM, CCOC(=O)C1CCCN(Cc2nc(N)nc(Nc3ccc(OC)cc3)n2)C1 (configuration not stated) > 76.9 µM, CCOC(=O)C1CCN(S(=O)(=O)c2ccc(-c3nc4ccccc4s3)s2)CC1 > 76.9 µM, COc1ccc(C2C(C(=O)NCC3CCCO3)c3cc(OC)c(OC)cc3C(=O)N2C)cc1OC (configuration not stated) > 76.9 µM, Cn1c(/C=C/N2CCOCC2)c(C(=O)c2ccc(Br)cc2)c(=O)n(C)c1=O > 76.9 µM, O=C(NC1CCCC1)C1C2C=CC(C2)C1C(=O)N1CCOCC1 (configuration not stated) > 76.9 µM, O=C(Cn1cnc2ccccc2c1=O)NC1CCCc2ccccc21 (configuration not stated) > 76.9 µM, Cn1c(=O)c2c(nc(CN3CCN(c4ccccc4)CC3)n2CCCc2ccccc2)n(C)c1=O > 76.9 µM, COc1ccc(Cl)c(NC(=O)Cn2nnc(-c3ccccc3N)n2)c1 > 76.9 µM, O=C(NC(Cc1ccccc1)C(=O)OCC(=O)N1CCc2ccccc21)c1ccco1 (configuration not stated) > 76.9 µM, CCOc1ccc(CNC(=O)C2CCN(S(=O)(=O)CC)CC2)cc1OC > 76.9 µM, c1ccc(Cn2nnnc2C(c2cccnc2)N2CCN(C3CCCCC3)CC2)cc1 (configuration not stated) > 76.9 µM, COCCN(C(=O)Cc1cccs1)c1nnc(-c2cccnc2)s1 > 76.9 µM, COc1ccc(S(=O)(=O)NCCc2csc(C)n2)cc1C > 76.9 µM, COc1ccc(C2NC(=O)c3ccccc3O2)c(OC)c1OC (configuration not stated) > 76.9 µM, CCc1nnc(NC(=O)CSc2nc3c(cc2C#N)CCCC3)s1 > 76.9 µM, O=c1[nH]c(CSc2nc3ccccc3o2)nc2c1cnn2-c1ccccc1 > 76.9 µM, Cc1nc(CC(=O)Nc2nc(C(C)(C)C)cs2)cs1 > 76.9 µM, Cn1c(SCC(N)=O)nnc1C1CCN(C(=O)NCc2ccccc2)CC1 > 76.9 µM, Cc1ccc2c(c1)sc1ncc(NC(=O)c3ccccc3)c(=O)n12 > 76.9 µM, CC1(C)CC(=O)C2=C(C1)N(CC1CCCO1)C(=O)NC2(C(F)(F)F)C(F)(F)F (configuration not stated) > 76.9 µM, CCOC(=O)CSc1nnc(CNC(=O)c2ccc(S(=O)(=O)N3CCCCC3)cc2)n1C > 76.9 µM, O=C(Cn1nc(C(F)(F)F)c2c1CCCCC2)N1CCOCC1 > 76.9 µM, Cc1ccc(NC(=O)C2CCCN(c3ncccn3)C2)cc1F (configuration not stated) > 76.9 µM, Cc1cc(NC(=O)c2ccccc2F)n(-c2nc3ccccc3[nH]2)n1 > 76.9 µM, COc1ccc(S(=O)(=O)Nc2cccc(SC)c2)cc1OC > 76.9 µM, Cc1ncoc1C(=O)Nc1cccc(Cl)c1 > 76.9 µM, COC(=O)Cn1c(=O)sc2ccccc21 > 76.9 µM, CCOC(=O)c1[nH]c(C)c(/C(O)=C2\C(=O)C(=O)N(CCN(C)C)C2c2ccncc2)c1C (configuration not stated) > 76.9 µM, O=C(CCC(=O)c1cccs1)OCc1nc2ccccc2s1 > 76.9 µM, COc1cc(C2C(C#N)=C(N)Oc3n[nH]c(-c4ccccn4)c32)cc(OC)c1OC (configuration not stated) > 76.9 µM, O=C(Nc1cc(C(=O)N2CCCC2)ccc1N1CCCC1)c1ccccc1 > 76.9 µM, COc1ccc(S(=O)(=O)N2CCOCC2)cc1C(=O)Nc1cc(C)on1 > 76.9 µM, COC(=O)c1cc(Br)c(=O)n(-c2ccc(OC)cc2)c1 > 76.9 µM, Cc1nc2ccccn2c1/C(O)=C1\C(=O)C(=O)N(CCN2CCOCC2)C1c1ccncc1 (configuration not stated) > 76.9 µM, CCc1ccc2[nH]c(=O)c(CN(Cc3ccco3)S(=O)(=O)c3ccc4c(c3)OCCO4)cc2c1 > 76.9 µM, O=C(c1ccccc1)N(Cc1ccc2c(c1)OCO2)Cc1nc2ccccc2c(=O)[nH]1 > 76.9 µM, Cc1cccc2cc(C(c3nnnn3Cc3ccc4c(c3)OCO4)N3CCCC3)c(=O)[nH]c12 (configuration not stated) > 76.9 µM, CCC(C)NC(=O)CC(c1ccc(OC)cc1)n1cccc1 (configuration not stated) > 76.9 µM, CC(OC(=O)c1nsc(Cl)c1Cl)C(=O)NCc1ccco1 (configuration not stated) > 76.9 µM, O=C(Cn1c(N2CCN(c3ccccc3)CC2)nc2ccccc21)c1ccccc1 > 76.9 µM, COc1ccc2c(c1)CCCC21NC(=O)NC1=O (configuration not stated) > 76.9 µM, COc1ccc(-n2cnnc2)cc1 > 76.9 µM, CCOC(=O)CSc1nc(C)c(C(=O)OCC)s1 > 76.9 µM, COc1ccc2nc(NC(=O)Cn3cnc4c(=O)n(C)c(=O)n(C)c43)sc2c1 > 76.9 µM, Cc1c(O)c(CN2CCCC2)cc2c3c(c(=O)oc12)CCC3 > 76.9 µM, c1ccc2[nH]c(NC3=NCCC3)nc2c1 > 76.9 µM, CC12CN3CC(C)(CN(C1)C3c1ccc3c(c1)OCO3)C2=O (configuration not stated) > 76.9 µM, Cc1ccc(S(=O)(=O)N[C@@H](C)C(=O)N2CCC(C(=O)N3CCC[C@H]3C(=O)O)CC2)cc1 > 76.9 µM, O=C(CCSc1nnc2ccccn12)Nc1ccc(F)cc1 > 76.9 µM, CC(C)NC(=O)C1CCCN(S(C)(=O)=O)C1 (configuration not stated) > 76.9 µM, COc1ccccc1NC(=O)CCN1C(=O)C2CC=C(Cl)CC2C1=O (configuration not stated) > 76.9 µM, Cn1nnc(NCc2cc(Br)ccc2OCc2cccs2)n1 > 76.9 µM, O=C(CN1CCN(S(=O)(=O)c2ccc(F)cc2)CC1)Nc1cc(C(F)(F)F)ccc1Cl > 76.9 µM, O=C(Cc1c(O)c2ccccc2[nH]c1=O)NCc1cccc(F)c1 > 76.9 µM, CNC(=O)c1cc2c(=O)n3cc(C)ccc3nc2n(Cc2ccco2)c1=N > 76.9 µM, COC(=O)c1ccccc1NC(=O)CN(C)S(=O)(=O)c1ccc(OC)cc1 > 76.9 µM, CCc1ccc(C(=O)Nc2ccc(S(=O)(=O)Nc3nc(C)cc(C)n3)cc2)o1 > 76.9 µM, NC(=O)c1ccc(NS(=O)(=O)c2ccccc2F)cc1 > 76.9 µM, Cc1ccc(NC(=O)C2CCCN2S(=O)(=O)c2ccc(F)cc2)c(C)c1 (configuration not stated) > 76.9 µM, Clc1ccc2nc(SCc3nnc(-c4ccccc4)o3)[nH]c2c1 > 76.9 µM, CCC(C)NC(=O)C1CCN(S(=O)(=O)CC)CC1 (configuration not stated) > 76.9 µM, CCCC(=O)NCc1ccc2c(c1)cc(C)n2C > 76.9 µM, Cc1nc2c(nnn2Cc2ccccc2)c(=O)n1-c1ccccc1 > 76.9 µM, Cc1nnc(C)n1/N=C/c1ccc(C(C)C)cc1 > 76.9 µM, c1ccc(OCCCc2nc(-c3ccncc3)no2)cc1 > 76.9 µM
